# Laboratory results reported in the supplement of paper PMC11417369.
# ± gives the standard deviation of the averaged measurements. This is one part of the list.
# Tested on: PfAP2-I AP2 domain 3 (GST-tagged)
# Experiment: gcPBM binding intensity (ln(normalized median fluorescence intensity)); higher = stronger DNA binding
# Summary of the method: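 Binding intensity is defined as the maximum Masliner-normalised natural-log median intensity across replicate spots for either probe orientation. It was measured on an Agilent 4 × 180k array of primer-extended double-stranded 36-bp intergenic genomic probes and negative controls, to which GST-tagged P. falciparum DNA-binding domains made in E. coli were applied for 1 h in 1× PBS with 1% milk, 0.2 mg/ml BSA, 0.5% salmon testes DNA and 0.03% Triton X-100. Detection was by Alexa488 anti-GST antibody and scanning at 488 nm.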
row,Sequence,gcPBM binding intensity (ln)
1,ATAAAGAAAAATAGAAGTACATATATGCATGTTAAT [XGTACX_site4480],8.38 ± 0.79
2,AACAATAAAAATAATTGTACAAGTCTAAAAAAAATT [XGTACX_site20],7.63 ± 0.62
3,ATAACAAAATAATAATGTACGTATAAATATAATTTA [XGTACX_site6049],7.82 ± 0.25
4,TATATCATCATGTATGTACACACATACATATATTAT [CACACA_site8387],7.82 ± 0.33
5,TACGTATTATAAATATGTACATATAATATGTATATA [XGTACX_site468],7.54 ± 0.19
6,CAAAAACATACCTACACACACAATATGTATATATAA [CACACA_site3514],7.58 ± 0.49
7,TGATAACCAAAAAGGGGTACATACACAAAAAAATAC [XGTACX_site1254],8.66 ± 0.28
8,AACAACATTTGATAAACACACAGAAGTATAAATATA [CACACA_site5327],7.67 ± 0.59
9,TACTTATTAGACTATTGTACATACATTATTAATATT [XGTACX_site7849],8.1 ± 0.52
10,TAAAAAATTAAGCAACGTACAAATGAAAAGTATAAT [XGTACX_site1058],8.18 ± 0.66
11,GAAAAACAAATATATTAACACACAAACATATAAACA [CACACA_site9315],7.92 ± 0.66
12,ATAAAATCAACAAATCAGGATGTCACGTAAATATCA [CACACA_negctrl_site1009],7.79 ± 0.49
13,AAATATTGTTTTTTATGTACTTATTTTTATTTATTT [XGTACX_site3481],7.86 ± 0.47
14,ATGAAAAAGTGCTGGATTCTAAAGAAAAAAAAAAAA [CACACA_negctrl_site962],8.16 ± 0.75
15,ATATTTTATATATTTGTGCACAATATTATAATATAT,11.04 ± 0.049
16,TTACATATATTGGGGTGTACATATATTTTCCTTCAC [XGTACX_site6224],8.32 ± 0.72
17,AAAAAAAAAAAAAAAAGTACACATAATTGTATATGT [XGTACX_site6339],8.6 ± 0.41
18,GTTATATGAACTTATATACACACCATTTTTGTAAAT [CACACA_site695],7.75 ± 0.63
19,AAATCATATTCTTATTTTATTTTTTTTATTTTTTAT [XGTACX_negctrl_site166],7.47 ± 0.6

row,Sequence,gcPBM binding intensity (ln)
1,TGTAGATATTTTTGGGGTACTTTATAAAGAACTAGT [XGTACX_site5635],8.19 ± 0.15
2,TCAACTTGATTTATATGTACACATATAAGTAATTAT [XGTACX_site1798],7.79 ± 0.49
3,ACGTTAGGCTTATTTGCACACTTGTATTAAAATTTT [CACACA_site4854],9.83 ± 0.014
4,AAAAATATGCTTCCATGTACTTAAAAAAAAAATTTA [XGTACX_site3617],7.58 ± 0.37
5,TATACAAACTATGATGCACACATATATATATGTATA [CACACA_site8327],8.9 ± 0.092
6,AAAAAAAATTTTCTTCTGTTGTATTTTTTATACGTT [GTGCAC_negctrl_site477],7.49 ± 0.77
7,AAAAAAAAGAAAAAAACACACAATGGAAAAAATGTA [CACACA_site3675],7.49 ± 0.76
8,TATTTAGAAATAAATACACACATACATTTTTGTATA [CACACA_site4557],7.44 ± 0.31
9,GTTTATTTTTTCATTTGTACACATAAATAAATATAT [XGTACX_site7752],8.23 ± 0.42
10,TTAATTATATTATGCACACACAATTGGAAAAAAAAT [CACACA_site1958],9.65 ± 0.26
11,GGTATATATTCTATCACACATATTTCCATGAAAATA [CACACA_site4728],8.06 ± 0.44
12,ATAGATATAACATATGCATGTAAAATATAACCACTC [TGCATGCA_site60],8.1 ± 0.61
13,TATTTTGTATTCATTTGTCACATATAATAGATAGGA [TGCATGCA_negctrl_site9],7.93 ± 0.61
14,AATATATGTATATCCACACACATATATATATATATA [CACACA_site1633],9.22 ± 0.52
15,TGTGCGGAAATAAGTGCACACATAGATATATGTATT [CACACA_site9227],10.7 ± 0.5
16,TTATACGAAGTACGTACACACACTTATATGTTACTA [CACACA_site4019],8.31 ± 0.26
17,AATAAATAGAAAGAGGTGCTACATTATATTATTTAT,8.73 ± 0.3
18,TAATAAATGACAAATTAACACACATATATTATATAT [CACACA_site9294],7.57 ± 0.51
19,CGCTCTCTTTAATATTGTACATATATATTATATATA [XGTACX_site7017],7.88 ± 0.59

row,Sequence,gcPBM binding intensity (ln)
1,ATAAATCAAATGCACACACACAAAAAAAAAAAAAAA [CACACA_site6221],9.31 ± 0.16
2,TACAAAAATATATAAACACACAAATATAATATATAT [CACACA_site2942],7.79 ± 0.57
3,TATATATAATATTTTTCACACACCATTTCCTTAAAC [CACACA_site1341],8.06 ± 0.4
4,TTTTTTTTTTTTTTTTGTACATAATAAATGTTCTTA [XGTACX_site6754],8.16 ± 0.57
5,TGTATCTATAATAAAACACACATTTTTAATGTGCTC [CACACA_site6788],7.42 ± 0.49
6,GGATAATCATACGAAGCATGCTGAATTTCCAAATAA [TGCATGCA_site1013],7.49 ± 0.79
7,AAAAAAATTAAATGGGGTACAATAAGGGTCAAATAT [XGTACX_site8669],8.44 ± 0.66
8,AAAAAAAAAAATGGCTGTACATAATATTTAAATAGG [XGTACX_site4286],8.02 ± 0.43
9,TTTTATTATATATATTGTACATATATTTTTATTTTT [XGTACX_site1564],7.7 ± 0.59
10,ATATTTATAACTTGGTGTACTTTGAAAAAAAAAAAA [XGTACX_site5194],8.25 ± 0.83
11,AAAAAAAAAAAAAACACACATACATACATACATATA [CACACA_site4121],8.2 ± 0.58
12,TTATATTAGCCGATGGTGCATATATTTATAGGAAAA [GTGCAC_site9518],10.8 ± 0.54
13,ATAATTTTTTAGATCACACATATAAATAAATAAATA [CACACA_site5175],7.73 ± 0.52
14,TTAGATAGATTTGTACGTACTTATTATAACGTATCA [XGTACX_site5067],7.845 ± 0.035
15,AATTTATAAATAATTAATTTGATAAATTATAAAGGG [GTGCAC_negctrl_site544],7.88 ± 0.43
16,ACATATTTATATGTCTGTACAAATATGCAATTTTTT [XGTACX_site5516],7.57 ± 0.5
17,TTTATGGATGTGTATGCATGCCTAAATAAATATATG [TGCATGCA_site916],7.88 ± 0.52
18,ACGACATATGGATGATGTACTATCTTTATTATACAT [XGTACX_site6857],7.53 ± 0.63
19,TAAATAATGTAAAAAACATCATCAAAATGTTAATTA [CACACA_negctrl_site1768],7.23 ± 0.17
